Patent US20240301031A1 (JIANGSU HENGRUI PHARMACEUTICALS, published 2024)

T1: human IL-12 (CT050-H08H, Sino biological) (human, UniProt P29459 23-219; P29460 23-328)
T1 construct: Bought heterodimer
T1 sequence (looked up) 1: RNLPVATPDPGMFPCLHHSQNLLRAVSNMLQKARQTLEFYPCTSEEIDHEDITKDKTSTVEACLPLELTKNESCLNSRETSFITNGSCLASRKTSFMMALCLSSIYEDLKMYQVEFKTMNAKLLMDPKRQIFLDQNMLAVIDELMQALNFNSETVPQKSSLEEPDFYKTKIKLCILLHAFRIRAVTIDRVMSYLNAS
T1 sequence (looked up) 2: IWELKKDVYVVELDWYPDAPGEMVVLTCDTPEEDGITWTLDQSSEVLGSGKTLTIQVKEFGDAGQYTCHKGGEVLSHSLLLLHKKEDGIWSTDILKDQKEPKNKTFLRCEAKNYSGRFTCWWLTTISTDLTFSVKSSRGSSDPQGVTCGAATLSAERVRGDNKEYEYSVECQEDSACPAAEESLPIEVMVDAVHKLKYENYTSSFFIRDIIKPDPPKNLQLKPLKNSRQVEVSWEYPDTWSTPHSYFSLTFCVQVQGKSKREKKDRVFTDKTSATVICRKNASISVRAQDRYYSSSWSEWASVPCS

T2: IL-12/23 p40 (Sino biological, 10052-H08H) (UniProt P29460 23-328)
T2 construct: Bought protein
T2 sequence (looked up): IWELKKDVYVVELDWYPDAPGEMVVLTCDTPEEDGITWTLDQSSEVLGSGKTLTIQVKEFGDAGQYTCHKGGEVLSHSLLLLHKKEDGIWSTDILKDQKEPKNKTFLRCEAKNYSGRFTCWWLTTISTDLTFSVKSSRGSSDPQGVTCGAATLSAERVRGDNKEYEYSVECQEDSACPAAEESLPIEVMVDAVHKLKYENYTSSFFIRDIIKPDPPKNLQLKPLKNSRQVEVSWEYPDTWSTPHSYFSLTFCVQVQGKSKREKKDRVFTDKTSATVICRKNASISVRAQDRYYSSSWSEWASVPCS

T3: human APRIL (5860-AP-010/CF, R&D Systems) (human, UniProt O75888 115-250, limits assumed)
T3 construct: Bought protein
T3 sequence (looked up): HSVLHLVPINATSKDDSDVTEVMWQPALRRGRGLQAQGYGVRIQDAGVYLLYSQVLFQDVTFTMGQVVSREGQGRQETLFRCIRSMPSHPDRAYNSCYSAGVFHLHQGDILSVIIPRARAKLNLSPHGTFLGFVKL


Columns and labels:
[1] = target: T1, human IL-12 (CT050-H08H, Sino …); assay: SPR (Biacore), sample captured on Protein A, antigen flowed, 1:1 fit
Experimental: (§1) A certain amount of test sample was subjected to affinity capture by a biosensor chip Protein A (GE, 29127556), then antigens at a series of concentration gradients were allowed to flow on the surface of the chip. The reaction signals were detected in real time by using Biacore (GE, 8K) to obtain association and dissociation curves. After the dissociation was completed for each cycle, the biochip was washed and regenerated with a 10 mM glycine-hydrochloric acid solution at pH 1.5 (GE, BR-1003-54). The experimental data were fitted using BIAevaluation version 4.1, GE software with a 1:1 model to obtain affinity values. The related antigen proteins used in this assay are as follows: human IL-23 (CT048-H08H, Sino biological), human IL-12 (CT050-H08H, Sino biological), human BAFF (10056-HNCH, Sino biological), human APRIL (5860-AP-010/CF, R&D Systems), cynomolgus monkey p40 (10215-CL, R&D Systems), cynomolgus monkey BAFF (BAF-CM412B, Kactus), cynomolgus monkey APRIL (APR-CM410B, Kactus), mouse BAFF (BAF-M521y, Acro Biosystems), and mouse APRIL (7907-AP/CF, R&D Systems).

[2] = target: T4, cynomolgus monkey p40 (10215-CL, R&D Systems) (cynomolgus monkey); assay: as above
T4 construct: Bought protein
Experimental: as §1

[3] = target: T2, IL-12/23 p40 (Sino biological, …); assay: ELISA, IL-12/23 p40 coated, sample titrated
Experimental: (§2) The binding activity of the antibodies or fusion proteins for BAFF, APRIL, and IL-12/23 p40 was assayed by the ELISA method (coating an antigen protein). The specific procedures were as follows:
(§3) A BAFF (Sino biological, 10056-HNCH), APRIL (R&D Systems, 5860-AP-010/CF), or IL-12/23 p40 (Sino biological, 10052-H08H) protein was diluted to 1 μg/mL with a PBS (BasalMedia, B320) buffer at pH 7.4, and added to a 96-well microplate (Corning, 3590) at 100 μL/well. The plate was incubated at 4° C. overnight. After the liquid was discarded, 300 μL of 5% skim milk (BD, 232100) diluted with PBS was added to each well for blocking, and the plate was incubated at 37° C. for 2 h. After the blocking was completed, the blocking solution was discarded, and the plate was washed 3 times with a PBST buffer (PBS at pH 7.4 containing 0.1% tween-20). 100 μL of test antibody or fusion protein solution diluted in a gradient was added to each well, and the plate was incubated at 37° C. for 1 h. After the incubation was completed, the plate was washed 3 times with PBST. […] The plate was washed 3 times with PBST. […] The plate was read for absorbance values at 450 nm on a microplate reader, the binding curves of the antibodies to an antigen were fitted with software, and the EC₅₀ values were calculated.

[4] = target: T3, human APRIL (5860-AP-010/CF, R&D …); assay: ELISA, APRIL coated, sample titrated
Experimental: as §2, §3

[5] = target: T3, human APRIL (5860-AP-010/CF, R&D …); assay: cell-based or functional assay

Binder | Kd [1] | koff [1] | kon [1] | Kd [2] | koff [2] | kon [2] | EC50 [3] | EC50 [4] | IC50 (nM) for the inhibition of the APRIL-induced B cell proliferation [5]
TACI-Mab1 (other, also called TACI antibody fusion protein) heavy: EVQLVQSGAEVKKPGESLKISCKGSGYSFTTYWLGWVRQMPGKGLDWIGIMSPVDSDIRYSPSFQGQVTMSVDKSITTAYLQWNSLKASDTAMYYCARRRPGQGYFDFWGQGTLVTVSS[omitted - human IgG1 constant region]GGSSTSCREEQGEFYDHLLRDCISCASICGQHPKQCAAFCENK light: [omitted - about 200 residues] | 0.0424 nM | 0.000211 s⁻¹ | 4.97e+06 M⁻¹ s⁻¹ | 0.267 nM | 0.000238 s⁻¹ | 891000 M⁻¹ s⁻¹ | 0.619 nM | 1.84 nM | –
TACI-Mab2 (other, also called TACI antibody fusion protein) heavy: EVQLVQSGAEVKKPGESLKISCKGSGYSFTTYWLGWVRQMPGKGLDWIGIMSPVDSDIRYSPSFQGQVTMSVDKSITTAYLQWNSLKASDTAMYYCARRRPGQGYFDFWGQGTLVTVSS[omitted - human IgG1 constant region]GGSSTSCREEQGEFYDHLLRDCISCASICGQHPKQCAAFCENK light: STSCREEQGEFYDHLLRDCISCASICGQHPKQCAAFCENKLGGGGSGGGGSGGGGS[omitted - about 200 residues] | – | – | – | – | – | – | 0.542 nM | 1.29 nM | 0.0892 nM
